{"source": "the supplement of paper PMC10338343", "note": "± gives the standard deviation. The entries are a selection whose mix differs from that of the whole data set.", "data": [{"system": "MIWI (PIWIL1) piRISC loaded with piRNA #1 (30 nt)", "test": "pre-steady-state target cleavage rate (min^-1); MIWI and MILI are mouse PIWI proteins and EfPiwi is from a freshwater sponge; tags in brackets are library labels; higher = faster piRNA-guided slicing of the target", "details": "guide: piRNA #1 5'p-UGAGGUAGUAGGUUGUAUAGUAUCCAGAGG; auxiliary factor: 500 nM mouse GTSF1", "summary_of_the_method": "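With or without 500 nM GTSF1 partner protein, 1 nM active affinity-purified piRISC carrying one synthetic guide was mixed with 0.1 nM transcribed, DNA-blocked target RNA library in HEPES–potassium acetate buffer at 33 °C for 0–8 or 0–960 min. Uncleaved targets were sequenced and normalised to depth and to weakly complementary targets, three trials were pooled, and k3 was capped at 0.0001 min^-1. The pre-steady-state cleavage rate came from a burst-and-steady-state fit.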", "values": [{"sequence": "GGAGACCUAUGUAUACAACCUAAUACCUCA", "pre-steady-state target cleavage rate": "0.00608 ± 0.0023"}, {"sequence": "GGAGACCUAACUAUACAACCAACUACCUCA", "pre-steady-state target cleavage rate": "0.0156 ± 0.0076"}, {"sequence": "GGAGUGGAUACUAUACAACCUUCUACGUCA", "pre-steady-state target cleavage rate": "0.103 ± 0.021"}, {"sequence": "GGAGACCUAUGAUAUGUUCCUACUACCUGA", "pre-steady-state target cleavage rate": "< 0.0001"}, {"sequence": "GGAGACCUAUGUAUUCAACCUACUACCUCA", "pre-steady-state target cleavage rate": "0.0065 ± 0.0016"}, {"sequence": "GGAGACCUAACUUUACAACCUACUACCUGA", "pre-steady-state target cleavage rate": "0.126 ± 0.063"}, {"sequence": "GGACAGCAUACUAUACAACCUACUACCUCA", "pre-steady-state target cleavage rate": "1.55 ± 0.11"}, {"sequence": "GGAGAGCAUACUAUACAACCUACUAGCUCA", "pre-steady-state target cleavage rate": "0.276 ± 0.041"}, {"sequence": "GGAGACCUAACUAUACAACCUACAACCACA", "pre-steady-state target cleavage rate": "0.196 ± 0.055"}, {"sequence": "GGAGACGAUACAAUACAACCUACUACCACA", "pre-steady-state target cleavage rate": "1.08 ± 0.081"}, {"sequence": "GGUCUGGAUACUAUUCAUCCUACUACCUCA", "pre-steady-state target cleavage rate": "1.4 ± 0.093"}, {"sequence": "GGAGACCUAUGUAUGCAACCUACUACCUCA", "pre-steady-state target cleavage rate": "0.0455 ± 0.0073"}, {"sequence": "GGAGACCUAACAAUACAACCUACUACCUCA", "pre-steady-state target cleavage rate": "0.306 ± 0.095"}, {"sequence": "GGAGACCUUACUAUACAACCUACUACCAUCA", "pre-steady-state target cleavage rate": "1.28 ± 0.095"}, {"sequence": "GGAGACCUAUCUGAUACAACCUACUACCUCA", "pre-steady-state target cleavage rate": "0.042 ± 0.012"}, {"sequence": "GGAGACCUUACUAUACAACCAAGUACCUCA", "pre-steady-state target cleavage rate": "0.0056 ± 0.0029"}, {"sequence": "GGAGUGGAUUCUAUACAACGUACUACCUCA", "pre-steady-state target cleavage rate": "0.953 ± 0.059"}, {"sequence": "GGAGUGGAUACUAUACAACCUACUACGUGA", "pre-steady-state target cleavage rate": "0.0221 ± 0.0059"}, {"sequence": "GGAGAGGAUACUAUACAACGUACUUCCUCA", "pre-steady-state target cleavage rate": "0.02 ± 0.0065"}, {"sequence": "GGAGUGGAUACUAUACAAGCAACUACCUCA", "pre-steady-state target cleavage rate": "0.0272 ± 0.0039"}, {"sequence": "GCUCAGGAUACUAUACAACCUAGUACCUCA", "pre-steady-state target cleavage rate": "0.489 ± 0.043"}, {"sequence": "GGUCUGGAUAGUAUACUACCUACUACCUCA", "pre-steady-state target cleavage rate": "0.595 ± 0.064"}, {"sequence": "GCUCUGGAAACUAUAGAACCUACUACCUCA", "pre-steady-state target cleavage rate": "0.894 ± 0.055"}, {"sequence": "GGAGACCUUACUAUACAACCUACCACCUCA", "pre-steady-state target cleavage rate": "0.847 ± 0.06"}, {"sequence": "GGAGACCUACCUAUACAACCUACUACCUCA", "pre-steady-state target cleavage rate": "1.19 ± 0.16"}, {"sequence": "GGAGACGAUCCUAUACAACCUACUACCUCA", "pre-steady-state target cleavage rate": "1.85 ± 0.17"}, {"sequence": "GGAGAGGAUACUAAACAACCUACUUCCUCA", "pre-steady-state target cleavage rate": "0.187 ± 0.03"}, {"sequence": "GGAGAGGAUACUAUACAAACCUACUACCUCA", "pre-steady-state target cleavage rate": "0.00367 ± 0.0033"}, {"sequence": "CCUCUGGAUACUAUUGUACCUACUACCUCA", "pre-steady-state target cleavage rate": "0.139 ± 0.021"}, {"sequence": "GGAGAGGAUACUAUACAACCUUCUAGCUCA", "pre-steady-state target cleavage rate": "0.0222 ± 0.0082"}, {"sequence": "GGUCUGGAUACUAAACAACCUACAACCUCA", "pre-steady-state target cleavage rate": "0.501 ± 0.049"}, {"sequence": "GGAGACCUAUGAUAACAACCAUGAUGGAGA [g11:g16:cont:t1A]", "pre-steady-state target cleavage rate": "< 0.0001"}, {"sequence": "GGAGACCUUAUCUAUACAACCUACUACCUCA", "pre-steady-state target cleavage rate": "1.19 ± 0.1"}, {"sequence": "GGACUGGAUACUAAACAACCUACUAGCUCA", "pre-steady-state target cleavage rate": "0.0977 ± 0.019"}, {"sequence": "GGAGACCUAUCUAUACAACCUACAACCUCA", "pre-steady-state target cleavage rate": "0.298 ± 0.035"}, {"sequence": "CCUCUGCAUACUAUACAACCUACAACCUCA", "pre-steady-state target cleavage rate": "1.7 ± 0.12"}, {"sequence": "GGAGUGGAUACUAUUCAACCUACUUCCUCA", "pre-steady-state target cleavage rate": "0.00996 ± 0.0027"}, {"sequence": "GGAGACCAUACUAUACAACCUACAUCCUCA", "pre-steady-state target cleavage rate": "0.614 ± 0.035"}, {"sequence": "GGAGACCUUACAAUACAUCCUACUACCUCA", "pre-steady-state target cleavage rate": "0.189 ± 0.03"}]}]}
